The other results are listed elsewhere or left out.
Experiments:
Experiment in all cases: glycan array binding signal (z-score within array); higher = stronger binding
Details in all cases: glycan notation: IUPAC condensed, linker removed
[1] = target: Gal(b1-4)GlcNAc(b1-3)Gal(b1-4)GlcNAc(b1-2)Man(a1-3)[Gal(b1-4)GlcNAc(b1-3)Gal(b1-4)GlcNAc(b1-2)Man(a1-6)]Man(b1-4)GlcNAc(b1-4)[Fuc(a1-6)]GlcNAc
Method in brief: (§1)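 The binding signal is a Z-score computed within each array. Data were drawn from 3228 arrays in the Consortium for Functional Glycomics database, restricted to those with a known protein sequence. Scores were averaged over arrays of the same protein sequence at different concentrations or buffers, and over linkers, and negative values can be taken as non-binding.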

[2] = target: Gal(b1-4)GlcNAc(b1-3)Gal(b1-4)GlcNAc(b1-2)[Gal(b1-4)GlcNAc(b1-3)Gal(b1-4)GlcNAc(b1-6)]Man(a1-6)[Gal(b1-4)GlcNAc(b1-3)Gal(b1-4)GlcNAc(b1-2)Man(a1-3)]Man(b1-4)GlcNAc(b1-4)GlcNAc
Method in brief: as §1

[3] = target: Gal(b1-4)GlcNAc(b1-3)Gal(b1-4)GlcNAc(b1-2)[Gal(b1-4)GlcNAc(b1-3)Gal(b1-4)GlcNAc(b1-6)]Man(a1-6)[Gal(b1-4)GlcNAc(b1-3)Gal(b1-4)GlcNAc(b1-2)Man(a1-3)]Man(b1-4)GlcNAc(b1-4)[Fuc(a1-6)]GlcNAc
Method in brief: as §1

[4] = target: Gal(b1-4)GlcNAc(b1-3)Gal(b1-4)GlcNAc(b1-3)Gal(b1-4)GlcNAc
Method in brief: as §1

[5] = target: Gal(b1-4)GlcNAc(b1-3)Gal(b1-4)GlcNAc(b1-3)Gal(b1-4)GlcNAc(b1-2)Man(a1-3)[Gal(b1-4)GlcNAc(b1-3)Gal(b1-4)GlcNAc(b1-3)Gal(b1-4)GlcNAc(b1-2)Man(a1-6)]Man(b1-4)GlcNAc(b1-4)GlcNAc
Method in brief: as §1

[6] = target: Gal(b1-4)GlcNAc(b1-3)Gal(b1-4)GlcNAc(b1-3)Gal(b1-4)GlcNAc(b1-2)Man(a1-3)[Gal(b1-4)GlcNAc(b1-3)Gal(b1-4)GlcNAc(b1-3)Gal(b1-4)GlcNAc(b1-2)Man(a1-6)]Man(b1-4)GlcNAc(b1-4)[Fuc(a1-6)]GlcNAc
Method in brief: as §1

[7] = target: Gal(b1-4)GlcNAc(b1-3)Gal(b1-4)GlcNAc(b1-3)Gal(b1-4)GlcNAc(b1-2)[Gal(b1-4)GlcNAc(b1-3)Gal(b1-4)GlcNAc(b1-3)Gal(b1-4)GlcNAc(b1-6)]Man(a1-6)[Gal(b1-4)GlcNAc(b1-3)Gal(b1-4)GlcNAc(b1-3)Gal(b1-4)GlcNAc(b1-2)Man(a1-3)]Man(b1-4)GlcNAc(b1-4)[Fuc(a1-6)]GlcNAc
Method in brief: as §1

[8] = target: Gal(b1-4)GlcNAc(b1-3)Gal(b1-4)GlcNAc(b1-3)Gal(b1-4)GlcNAc(b1-3)Gal(b1-4)GlcNAc(b1-2)Man(a1-3)[Gal(b1-4)GlcNAc(b1-3)Gal(b1-4)GlcNAc(b1-3)Gal(b1-4)GlcNAc(b1-3)Gal(b1-4)GlcNAc(b1-2)Man(a1-6)]Man(b1-4)GlcNAc(b1-4)GlcNAc
Method in brief: as §1

[9] = target: Gal(b1-4)GlcNAc(b1-3)Gal(b1-4)GlcNAc(b1-3)Gal(b1-4)GlcNAc(b1-3)Gal(b1-4)GlcNAc(b1-2)Man(a1-3)[Gal(b1-4)GlcNAc(b1-3)Gal(b1-4)GlcNAc(b1-3)Gal(b1-4)GlcNAc(b1-3)Gal(b1-4)GlcNAc(b1-2)Man(a1-6)]Man(b1-4)GlcNAc(b1-4)[Fuc(a1-6)]GlcNAc
Method in brief: as §1

[10] = target: Gal(b1-4)GlcNAc(b1-3)Gal(b1-4)GlcNAc(b1-3)Gal(b1-4)GlcNAc(b1-3)Gal(b1-4)GlcNAc(b1-2)[Gal(b1-4)GlcNAc(b1-3)Gal(b1-4)GlcNAc(b1-3)Gal(b1-4)GlcNAc(b1-3)Gal(b1-4)GlcNAc(b1-6)]Man(a1-6)[Gal(b1-4)GlcNAc(b1-3)Gal(b1-4)GlcNAc(b1-3)Gal(b1-4)GlcNAc(b1-3)Gal(b1-4)GlcNAc(b1-2)Man(a1-3)]Man(b1-4)GlcNAc(b1-4)[Fuc(a1-6)]GlcNAc
Method in brief: as §1

[11] = target: Gal(b1-4)GlcNAc(b1-3)Gal(b1-4)GlcNAc(b1-3)Gal(b1-4)GlcNAc(b1-3)Gal(b1-4)GlcNAc(b1-3)Gal(b1-4)GlcNAc(b1-2)Man(a1-3)[Gal(b1-4)GlcNAc(b1-3)Gal(b1-4)GlcNAc(b1-3)Gal(b1-4)GlcNAc(b1-3)Gal(b1-4)GlcNAc(b1-3)Gal(b1-4)GlcNAc(b1-2)Man(a1-6)]Man(b1-4)GlcNAc(b1-4)GlcNAc
Method in brief: as §1

[12] = target: Gal(b1-4)GlcNAc(b1-3)Gal(b1-4)GlcNAc(b1-3)Gal(b1-4)GlcNAc(b1-3)Gal(b1-4)GlcNAc(b1-3)Gal(b1-4)GlcNAc(b1-2)Man(a1-3)[Gal(b1-4)GlcNAc(b1-3)Gal(b1-4)GlcNAc(b1-3)Gal(b1-4)GlcNAc(b1-3)Gal(b1-4)GlcNAc(b1-3)Gal(b1-4)GlcNAc(b1-2)Man(a1-6)]Man(b1-4)GlcNAc(b1-4)[Fuc(a1-6)]GlcNAc
Method in brief: as §1

[13] = target: Gal(b1-4)GlcNAc(b1-3)Gal(b1-4)GlcNAc(b1-3)Gal(b1-4)GlcNAc(b1-3)Gal(b1-4)GlcNAc(b1-3)Gal(b1-4)GlcNAc(b1-2)[Gal(b1-4)GlcNAc(b1-3)Gal(b1-4)GlcNAc(b1-3)Gal(b1-4)GlcNAc(b1-3)Gal(b1-4)GlcNAc(b1-3)Gal(b1-4)GlcNAc(b1-6)]Man(a1-6)[Gal(b1-4)GlcNAc(b1-3)Gal(b1-4)GlcNAc(b1-3)Gal(b1-4)GlcNAc(b1-3)Gal(b1-4)GlcNAc(b1-3)Gal(b1-4)GlcNAc(b1-2)Man(a1-3)]Man(b1-4)GlcNAc(b1-4)[Fuc(a1-6)]GlcNAc
Method in brief: as §1

[14] = target: Gal(b1-4)GlcNAc(b1-3)Gal(b1-4)GlcNAc(b1-3)Gal(b1-4)GlcNAc(b1-3)Gal(b1-4)GlcNAc(b1-3)Gal(b1-4)GlcNAc(b1-3)Gal(b1-4)GlcNAc(b1-2)Man(a1-3)[Gal(b1-4)GlcNAc(b1-3)Gal(b1-4)GlcNAc(b1-3)Gal(b1-4)GlcNAc(b1-3)Gal(b1-4)GlcNAc(b1-3)Gal(b1-4)GlcNAc(b1-3)Gal(b1-4)GlcNAc(b1-2)Man(a1-6)]Man(b1-4)GlcNAc(b1-4)GlcNAc
Method in brief: as §1

[15] = target: Gal(b1-4)GlcNAc(b1-3)Gal(b1-4)GlcNAc(b1-3)GalNAc
Method in brief: as §1

[16] = target: Gal(b1-4)GlcNAc(b1-3)Gal(b1-4)GlcNAc(b1-3)[Gal(b1-4)GlcNAc(b1-3)Gal(b1-4)GlcNAc(b1-6)]GalNAc
Method in brief: as §1

[17] = target: Gal(b1-4)GlcNAc(b1-3)Gal(b1-4)GlcNAc(b1-6)[Gal(b1-3)]GalNAc
Method in brief: as §1

[18] = target: Gal(b1-4)GlcNAc(b1-3)Gal(b1-4)[Fuc(a1-3)GlcNAc(b1-6)]Gal(b1-4)Glc
Method in brief: as §1

[19] = target: Gal(b1-4)GlcNAc(b1-3)Gal(b1-4)[Fuc(a1-3)]GlcNAc(b1-3)Gal(b1-4)[Fuc(a1-3)]GlcNAc
Method in brief: as §1

[20] = target: Gal(b1-4)GlcNAc(b1-3)GalNAc
Method in brief: as §1

[21] = target: Gal(b1-4)GlcNAc(b1-3)[Fuc(a1-3)GlcNAc(b1-6)]Gal(b1-4)Glc
Method in brief: as §1

[22] = target: Gal(b1-4)GlcNAc(b1-3)[Gal(b1-4)GlcNAc(b1-6)]Gal(b1-4)GlcNAc
Method in brief: as §1

B1: Nictaba (Nicotiana tabacum), Q94EW1 (protein)
chain: MQGQWIAARDLSITWVDNPQYWTWKTVDPNIEVAELRRVAWLDIYGKIETKNLIRKTSYAVYLVFKLTDNPRELERATASLRFVNEVAEGAGIEGTTVFISKKKKLPGELGRFPHLRSDGWLEIKLGEFFNNLGEDGEVEMRLMEINDKTWKSGIIVKGFDIRPN
B1 was tested. Which “glycan array binding signal (z-score)” value [1] did it give?
Its value is 2.81.

What about the “glycan array binding signal (z-score)” value [2] of the same binder?
The value was 0.088.

And the “glycan array binding signal (z-score)” value [3]?
Its value is 1.11.

And the “glycan array binding signal (z-score)” value [4]?
Its value is -0.246.

What about the “glycan array binding signal (z-score)” value [5] of the same binder?
The value was 1.54.

What about the “glycan array binding signal (z-score)” value [6] of the same binder?
Its value is 2.46.

And the “glycan array binding signal (z-score)” value [7]?
Its value is 0.076.

What about the “glycan array binding signal (z-score)” value [8] of the same binder?
The value was 2.49.

What about the “glycan array binding signal (z-score)” value [9] of the same binder?
The value was 2.18.

What about the “glycan array binding signal (z-score)” value [10] of the same binder?
Its value is -0.086.

What about the “glycan array binding signal (z-score)” value [11] of the same binder?
The value was 2.43.

What about the “glycan array binding signal (z-score)” value [12] of the same binder?
The value was 2.91.

What about the “glycan array binding signal (z-score)” value [13] of the same binder?
Its value is -0.006.

What about the “glycan array binding signal (z-score)” value [14] of the same binder?
Its value is 1.96.

And the “glycan array binding signal (z-score)” value [15]?
The value was -0.382.

What about the “glycan array binding signal (z-score)” value [16] of the same binder?
Its value is -0.378.

And the “glycan array binding signal (z-score)” value [17]?
Its value is -0.388.

And the “glycan array binding signal (z-score)” value [18]?
The value was -0.218.

And the “glycan array binding signal (z-score)” value [19]?
The value was -0.253.

And the “glycan array binding signal (z-score)” value [20]?
Its value is -0.278.

What about the “glycan array binding signal (z-score)” value [21] of the same binder?
Its value is -0.384.

What about the “glycan array binding signal (z-score)” value [22] of the same binder?
Its value is -0.242.
